Out of some 220,000 compounds screened, about 16,000 (7.3%) were called active. The shares of active, inactive and inconclusive entries below differ from those in the screen. Calls come from the whole dose curve; as a rule, active = well fitted inhibition curve with a large enough effect (not every such curve was filed as active); inconclusive = small, poorly fitted or top-dose-only effect, or another doubt; inactive = no such curve, though single readings can be large or run the other way. No potency is given beside an inconclusive call; the fits are too rough.
target: Aldehyde dehydrogenase 1A1 (Homo sapiens) (UniProt P00352); assay: qHTS Assay for Inhibitors of Aldehyde Dehydrogenase 1 (ALDH1A1); conditions: Purified ALDH1A1, NADH fluorescence, propionaldehyde substrate; series mostly up to 75.3 µM
Chain of UniProt P00352 (P00352 whole entry, looked up): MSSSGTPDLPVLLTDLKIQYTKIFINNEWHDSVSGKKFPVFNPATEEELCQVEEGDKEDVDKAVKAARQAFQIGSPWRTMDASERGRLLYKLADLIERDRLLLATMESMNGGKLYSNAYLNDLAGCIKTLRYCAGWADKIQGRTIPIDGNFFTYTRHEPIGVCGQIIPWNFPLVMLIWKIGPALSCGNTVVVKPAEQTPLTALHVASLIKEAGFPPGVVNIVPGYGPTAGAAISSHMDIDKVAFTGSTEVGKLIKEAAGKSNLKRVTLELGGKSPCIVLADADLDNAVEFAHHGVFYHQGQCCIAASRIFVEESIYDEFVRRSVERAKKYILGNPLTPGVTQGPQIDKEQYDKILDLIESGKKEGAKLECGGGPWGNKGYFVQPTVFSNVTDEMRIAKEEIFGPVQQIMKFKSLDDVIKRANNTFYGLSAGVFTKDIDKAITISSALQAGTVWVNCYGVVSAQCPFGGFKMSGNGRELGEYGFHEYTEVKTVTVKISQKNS
Potency is the fitted concentration of half-maximal effect; tags give direction and shape of the fitted curve.

Compound	Potency
CCOc1cc(CNC2CCCC2)cc(Cl)c1OCc1ccccc1	inconclusive [inhibitor, single point]
CCN(CC)c1ccc(/C=N/N=C(N)N)c(O)c1	inconclusive [inhibitor, single point]
O=C(c1cccs1)N1N=C(c2ccccc2)CC1c1ccccc1 (centres undefined)	inactive
COc1ccc(C(C(C(=O)c2cccs2)N2CCOCC2)N2CCOCC2)cc1OC (centres undefined)	inconclusive [inhibitor, single point]
COc1ccccc1-c1nn2c(C(F)(F)F)nnc2s1	inconclusive [inhibitor, partial curve]
C=C(C)Cn1cnc2cc(C)c(C)cc21	inactive
CCN(Cc1ccncc1)Cc1nc(CC2CC2)no1	inconclusive [inhibitor, single point]
O=C(COC(=O)C1CC(O)CN1S(=O)(=O)c1ccc(Cl)cc1)c1cccc(Cl)c1 (centres undefined)	inactive
CCOC(=O)c1cc2ccc3ccccc3c2s1	inactive
CCOC(=O)Nc1ccc2c(c1)ncn2C1CCCCC1	inconclusive [inhibitor, partial curve]
O=C(Cc1cccs1)Nc1nc(-c2cccnc2)cs1	inconclusive [inhibitor, single point]
Cc1nc(C(F)(F)F)nc(Nc2ccc(Br)cc2)c1C#N	inconclusive [inhibitor, single point]
Cc1ccc(S(=O)(=O)OC[C@@H]2CN3[C@H](c4ccc(Br)cc4)[C@H](C)CC[C@H]3C(=O)O2)cc1	inconclusive [inhibitor, single point]
CCc1ccc(NC(=O)CSc2nc3ccccc3c(=O)n2CCN2CCOCC2)cc1	inactive
Cc1ccc(/C=C2/SC(=S)N(CCCC(=O)Nc3ccc(O)cc3)C2=O)cc1	inconclusive [inhibitor, full curve]
COC(=O)Cn1c(=O)cnc2ccccc21	inconclusive [inhibitor, partial curve]
CCOc1ccc(C(C)=O)cc1N1C(=O)C2C(C1=O)C1C=CC2C12CC2 (centres undefined)	inactive
Cc1cccc(C(=O)O/N=C(\c2ccccc2)c2cccnc2)c1	active: 15.8 µM
O=C(Nc1nc2ccc(S(=O)(=O)N3CCCCC3)cc2s1)c1ccncc1	inconclusive [inhibitor, partial curve]
Cc1cc(C(=O)NP(=O)(N2CC(C)OC(C)C2)N2CC(C)OC(C)C2)c(C)n1C1CC1 (centres undefined)	inactive
CC(C)CC(=O)Nc1ccc(C(=O)CN2CCC(C)CC2)cc1	inconclusive [inhibitor, partial curve]
COc1ccc(CCC(=O)NC2=NCCS2)cc1OC	inactive
O=C(/C=C/c1ccco1)Nc1ccc(N2CCCC2)cc1	inactive
CCN(CC)S(=O)(=O)c1cccc(NC(=O)COc2ccc(C#N)cc2OC)c1	inconclusive [inhibitor, partial curve]
CN(CC(=O)NCc1ccccn1)S(=O)(=O)c1ccc(Br)cc1	inactive

Compound	Potency
CCC(Sc1ncccc1C(=O)O)C(=O)N1CCOCC1 (centres undefined)	inactive
CC(C)Cn1nc(C(=O)OCC(=O)NCC(F)(F)F)c2ccccc2c1=O	inactive
CCCc1nnc(SCC(=O)N2C(C)CCCC2C)n1CC (centres undefined)	inconclusive [inhibitor, single point]
CN(C)/C=C/C(=O)/C=C/c1ccc(Cl)cc1	inconclusive [inhibitor, single point]
O=C(Nc1ccc(S(=O)(=O)Nc2nccs2)cc1)c1cccc(N2C(=O)c3ccccc3C2=O)c1	active: 7.08 µM
O=C(Nc1cc(Sc2nc3ccccc3s2)cc([N+](=O)[O-])c1)c1ccccc1F	inactive
CCOc1ccc2nc(NC(=O)c3cnccn3)sc2c1	inactive
CCOc1ccc(S(=O)(=O)N(C)c2ccc(OCC(=O)NCc3ccc(C(=O)OC)cc3)cc2)cc1	inconclusive [inhibitor, full curve]
CCC(=O)NC(=S)NNC(=O)c1ccc(OC)cc1	active: 39.8 µM
O=c1cc(O)c2sc(Nc3cccc(C(F)(F)F)c3)nc2[nH]1	inconclusive [inhibitor, single point]
COc1ccc(-c2nnn(CC(=O)N(CCN3CCOCC3)C(C(=O)NC3CCCC3)c3ccco3)n2)cc1 (centres undefined)	inconclusive [inhibitor, single point]
Cc1ccc(NC(=S)Nc2ccc(S(=O)(=O)Nc3ncccn3)cc2)c(C)c1	inactive
CCOc1ccc(NC(=S)Nc2ccc(OC(F)(F)F)cc2)cc1	inactive
COC(=O)c1[nH]nc2c1C(=O)N(Cc1ccccc1)C2=O	inconclusive [inhibitor, partial curve]
CCN(CC)c1cccc(O)c1	inconclusive [inhibitor, partial curve]
Cc1ccc(S(=O)(=O)c2cc3c(=O)n4ccccc4nc3n(Cc3ccco3)c2=N)cc1	inconclusive [inhibitor, partial curve]
CCN(CC)CCCNC(=O)c1cc2c(-c3ccc(Cl)cc3)nn(C)c2s1	inconclusive [inhibitor, partial curve]
CCN1C(=O)N(CN2CCOCC2)C2C1N(CN1CCOCC1)C(=O)N2CC (centres undefined)	inactive
CC(=Nc1ccc(C)c(C)c1)C1=C(O)CSC1=O	inconclusive [inhibitor, single point]
CCOC(=O)c1c(C)[nH]c(C(=O)OC/C(O)=C(\C#N)c2nc3ccccc3[nH]2)c1C	inactive
COc1ccc(-n2c(SCC(=O)Nc3nccs3)nnc2-c2ccccc2)cc1	inactive
CN(C)CCNC(=O)/C(=C/c1ccc(-c2cccc(Cl)c2)o1)NC(=O)c1ccccc1	inactive
Cn1c(Sc2ccc(C(=O)O)cc2[N+](=O)[O-])nnc1-c1ccccc1	inactive
CC#CC(C)C(OCOC)C(CC(C)Cc1cc(Br)cc(OCc2ccccc2)c1OC)OC (centres undefined)	inconclusive [inhibitor, full curve]

Reference: PubChem BioAssay AID1030 (National Center for Advancing Translational Sciences (NCATS), 2008)
